PubChem BioAssay AID588591 (National Center for Advancing Translational Sciences (NCATS), 2011)
Hit rate of the full screen: of about 390,000 compounds, about 4,700 (1.2%) were called active. The shares of active, inactive and inconclusive entries below differ from those in the screen. The call rests on the fitted dose curve; in most records, active means well fitted inhibition curve with a large enough effect; inconclusive means small, poorly fitted or top-dose-only effect, or another doubt; inactive means no such curve, though single readings can be large or run the other way. Potencies beside an inconclusive call are fits to weak or partial responses and may not hold up.

biological target: DNA polymerase eta (Homo sapiens) (UniProt Q9Y253); assay: qHTS for Inhibitors of Polymerase Eta; settings: recombinant Pol eta, fluorescent DNA replication assay; series mostly up to 114 µM
How it was run: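 Pol eta (10 nM) was preincubated with compounds for 15 min at room temperature, after which fluorescent replication substrate (50 nM final) was added to start the reaction. Fluorescence was read kinetically at 0 and 10 min.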
Potency means the concentration at half of the fitted maximal effect; tags describe the fitted curve by direction and shape.

UniProt Q9Y253, sequence (Q9Y253 whole entry, looked up): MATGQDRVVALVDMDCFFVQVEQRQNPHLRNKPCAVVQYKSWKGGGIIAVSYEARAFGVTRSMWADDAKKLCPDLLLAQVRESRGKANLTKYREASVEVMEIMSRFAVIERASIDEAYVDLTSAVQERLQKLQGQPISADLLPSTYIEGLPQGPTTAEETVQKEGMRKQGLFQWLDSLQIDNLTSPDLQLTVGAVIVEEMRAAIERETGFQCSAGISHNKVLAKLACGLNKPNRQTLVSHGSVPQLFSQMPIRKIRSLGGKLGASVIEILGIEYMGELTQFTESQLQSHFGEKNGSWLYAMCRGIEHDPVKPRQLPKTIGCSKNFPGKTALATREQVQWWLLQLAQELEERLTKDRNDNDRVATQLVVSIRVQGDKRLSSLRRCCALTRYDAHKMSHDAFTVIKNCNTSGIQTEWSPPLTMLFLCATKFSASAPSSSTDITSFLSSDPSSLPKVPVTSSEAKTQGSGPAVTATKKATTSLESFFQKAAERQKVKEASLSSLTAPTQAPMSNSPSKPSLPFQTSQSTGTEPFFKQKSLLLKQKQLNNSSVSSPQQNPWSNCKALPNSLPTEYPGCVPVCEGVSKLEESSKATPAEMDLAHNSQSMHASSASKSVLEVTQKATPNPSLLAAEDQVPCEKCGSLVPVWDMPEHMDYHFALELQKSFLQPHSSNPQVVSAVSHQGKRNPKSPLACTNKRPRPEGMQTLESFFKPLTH

SMILES | Potency
O=c1[nH]c(N/N=C/c2ccccc2Br)nnc1-c1ccccc1 | inconclusive: 35.5 µM [inhibitor, partial curve, poor fit]
CCOC(=O)Cc1nnc(NC(=O)CSc2nnc3c4ccccc4n(C(C)C)c3n2)s1 | inconclusive: 11.2 µM [inhibitor, partial curve, poor fit]
Cc1cc(-c2ccc(C(C)C)c(S(=O)(=O)NCc3ccco3)c2)on1 | inconclusive: 15.8 µM [inhibitor, full curve, poor fit]
CCOC(=O)c1[nH]c2cc(OC)c(OC)cc2c1N | inconclusive: 25.1 µM [inhibitor, single point]
O=C(COC(=O)c1ccccc1[N+](=O)[O-])c1ccc2c(c1)OCO2 | inconclusive: 89.1 µM [inhibitor, single point]
CCc1nc2cccnc2n1-c1ccc(C(=O)O)cc1 | active: 20 µM
CC(C(=O)NC1C(=O)N2C(C(=O)O)=C(CSc3nnnn3C)CSC12)n1cc(Br)cn1 (configuration not stated) | active: 31.6 µM
O=C1N=C(N2C=CC(=C3C=CNC=C3)C=C2)/C(=C/N=NC(=O)c2ccccc2O)S1 | active: 17.8 µM
Cc1csc(Nc2ccccc2C(F)(F)F)n1 | inconclusive: 79.4 µM [inhibitor, partial curve, poor fit]
CCCNC(=O)CN1CCN(c2ncc(NC(=O)c3ccc(Cl)cc3)cc2C(=O)O)CC1 | inconclusive: 100 µM [inhibitor, partial curve, poor fit]
O=C(/C=C/c1ccco1)N(Cc1cccc(F)c1)C1CCS(=O)(=O)C1 (configuration not stated) | inconclusive: 22.4 µM [inhibitor, partial curve, poor fit]
CNC(=O)CCSSCCC(=O)NC | inconclusive: 100 µM [inhibitor, single point]
COCCCN(C(=O)c1cc2c(s1)CCC2)c1c(N)n(Cc2ccccc2)c(=O)[nH]c1=O | inconclusive: 11.2 µM [inhibitor, full curve, poor fit]
CCc1ccccc1N1CSC2=C(C#N)C(c3ccccc3F)CC(=O)N2C1 (configuration not stated) | inactive
COc1ccc(OC)c(/C=N/NC(=O)c2ccc3nc[nH]c3c2)c1 | inactive
COc1ccc(-n2nc(C(=O)NCC(=O)Nc3cccc(Cl)c3)c3ccccc3c2=O)cc1OC | inconclusive: 17.8 µM [inhibitor, partial curve]
O=C(COc1cccc(F)c1)Nc1nc(-c2ccccn2)cs1 | inconclusive: 17.8 µM [inhibitor, full curve, poor fit]
NC(=O)c1oc2ccccc2c1NC(=O)c1nc2ccccc2s1 | inconclusive: 14.1 µM [inhibitor, partial curve]
CCOc1ccccc1CNC(=O)c1cc(-c2ccc(C)c(C)c2)nc2ccccc12 | inactive
Cc1ccc(/C=C2/C(=O)c3ccc(C(=O)O)cc3C2=O)o1 | active: 3.98 µM
COc1ccc(/C=N/NC(=O)c2ccc(COCC(F)(F)C(F)F)cc2)cc1 | inconclusive: 28.2 µM [inhibitor, partial curve, poor fit]

SMILES | Potency
CN(C)CC1CCC/C(=C/c2ccc(Cl)cc2)C1=O (configuration not stated) | inconclusive: 31.6 µM [inhibitor, partial curve, poor fit]
Clc1ccc(-c2nn3c(-c4ccccc4)nnc3s2)cc1 | inconclusive: 79.4 µM [inhibitor, partial curve, poor fit]
O=C(COC(=O)c1n[nH]c2ccccc12)NC(=O)NCc1ccco1 | inconclusive: 31.6 µM [inhibitor, partial curve]
Cc1cc(NS(=O)(=O)c2ccc(NC(NC(=O)C(C(F)(F)F)C(F)(F)F)(C(F)(F)F)C(F)(F)F)cc2)no1 | inconclusive: 15.8 µM [inhibitor, full curve, poor fit]
CN(CC(=O)Nc1ccc(Cl)cc1)C(=O)CCc1ccccc1 | inactive
Cc1ccccc1NS(=O)(=O)c1cccc2nsnc12 | inactive
Cc1ccc(S(=O)(=O)Nc2nc3ccc(N)cc3s2)cc1 | inconclusive: 56.2 µM [inhibitor, partial curve, poor fit]
C=CCc1cccc(/C=N/NC(=O)c2ccc3nc[nH]c3c2)c1O | inconclusive: 89.1 µM [inhibitor, single point]
CCOc1ccc(C2C(C(=O)Nc3ccc(Cl)cc3)=C(C)Nc3nc(C(F)(F)F)nn32)cc1 (configuration not stated) | inactive
Nc1nccnc1C(=O)OCC(=O)NCCc1ccc(S(N)(=O)=O)cc1 | inconclusive: 12.6 µM [inhibitor, full curve, poor fit]
Cc1c(Cl)cnc(NC(=O)COC(=O)CCc2nc3ccccc3s2)c1Cl | inactive
CCOc1ccccc1NC(=O)Cc1coc2cc(C)ccc12 | inconclusive: 89.1 µM [inhibitor, partial curve, poor fit]
COc1ccc(NC(=O)Cn2nnc(C(=O)NCc3cccs3)c2N)c(OC)c1 | inconclusive: 28.2 µM [inhibitor, partial curve, poor fit]
Cc1nc2cc(NC(=O)N3CCN(c4ccccn4)CC3)ccc2o1 | inactive
CCCC(=O)OCCNc1cc(Sc2nc3ccccc3[nH]2)c2nonc2c1[N+](=O)[O-] | inconclusive: 31.6 µM [inhibitor, single point]
Cc1cc(C(C)(C)C)cc(C)c1Cn1c2[n+](c3ccc(C(F)(F)F)cc31)CCCCC2 | inactive
CC(C)c1cc(C(=O)O)c2ccccc2n1 | inconclusive: 89.1 µM [inhibitor, partial curve, poor fit]
COc1ccc(-c2nnc(NC(=O)c3cccs3)s2)c(OC)c1 | inconclusive: 79.4 µM [inhibitor, partial curve]
CC(=O)OCC1=C(C(=O)O)N2C(=O)[C@@H](NC(=O)Cc3ccccc3)[C@H]2SC1 | inconclusive: 25.1 µM [inhibitor, single point]
Cn1c(SCC(=O)Nc2ccc3nc(SCC(=O)N4CCCC4)sc3c2)nnc1-c1ccccc1 | active: 14.1 µM
COC(=O)CCCC1=CC2=CC(=O)C(C)(OC(=O)c3cccs3)C(=O)C2=CN1c1cccc(C#N)c1 (configuration not stated) | inconclusive: 28.2 µM [inhibitor, partial curve, poor fit]
